Measurements reported in PMC3002306.
Results are given in words; binding and its absence hold for the method and conditions named. For part of these data: Binding seen in cells or lysates may run through a third protein. Some entries that bind do so weakly or less than the wild type.

Chains of the proteins cited; added tags and fusions are not shown. Lines headed by an entry give the natural chain unless they say otherwise; changes in a name come on top. A line that says so, or that is headed by a name, gives the form on record, which may keep a tag or linker. Residues count along the entry.
GST fused to the cap domain of hu-TOP1 (E236/N237) (P11387, residues 219-433): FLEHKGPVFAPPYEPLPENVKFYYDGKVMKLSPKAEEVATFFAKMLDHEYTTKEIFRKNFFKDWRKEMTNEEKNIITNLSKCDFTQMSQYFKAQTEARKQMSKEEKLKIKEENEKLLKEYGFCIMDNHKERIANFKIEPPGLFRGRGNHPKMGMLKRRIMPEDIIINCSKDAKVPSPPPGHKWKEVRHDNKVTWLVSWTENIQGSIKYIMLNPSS
GST fused to the cap domain of hu-TOP1 with AGM residues D236/S237 (P11387, form named): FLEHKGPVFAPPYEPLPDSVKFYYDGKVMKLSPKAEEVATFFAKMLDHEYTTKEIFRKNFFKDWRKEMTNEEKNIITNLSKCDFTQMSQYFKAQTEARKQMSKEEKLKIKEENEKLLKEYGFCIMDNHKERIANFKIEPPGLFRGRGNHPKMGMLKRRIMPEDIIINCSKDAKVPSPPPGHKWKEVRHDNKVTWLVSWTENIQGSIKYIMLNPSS

T1: BTBD2 (two-hybrid construct of the unpublished BTBD1-BTBD2 assay) (UniProt Q9BX70)
T1 sequence: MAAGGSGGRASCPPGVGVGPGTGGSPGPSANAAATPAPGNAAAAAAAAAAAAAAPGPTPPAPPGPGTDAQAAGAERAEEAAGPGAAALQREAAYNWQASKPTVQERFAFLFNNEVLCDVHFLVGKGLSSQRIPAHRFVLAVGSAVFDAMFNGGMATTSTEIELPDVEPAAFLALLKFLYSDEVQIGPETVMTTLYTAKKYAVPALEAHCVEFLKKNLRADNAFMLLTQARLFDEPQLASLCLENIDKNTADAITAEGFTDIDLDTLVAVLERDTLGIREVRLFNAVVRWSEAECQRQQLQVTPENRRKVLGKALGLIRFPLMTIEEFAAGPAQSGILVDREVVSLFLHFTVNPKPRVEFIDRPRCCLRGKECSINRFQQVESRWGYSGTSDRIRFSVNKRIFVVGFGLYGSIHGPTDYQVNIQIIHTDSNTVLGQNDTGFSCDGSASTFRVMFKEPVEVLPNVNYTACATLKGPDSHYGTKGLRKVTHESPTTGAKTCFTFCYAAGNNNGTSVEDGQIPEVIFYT


What was measured:
[1] = biological target: GST fused to the cap domain of hu-TOP1 (E236/N237) (human) (UniProt P11387); experiment: pull-down; GST-capTOP1 on glutathione beads incubated with cell extracts containing C-terminal regions of BTBD1 and BTBD2; Western blot with a polyclonal antibody recognising both; only the target purified
[2] = biological target: GST fused to the cap domain of hu-TOP1 with AGM residues D236/S237 (human) (UniProt P11387); experiment: as above
[3] = biological target: GST fused to the cap domain of hu-TOP1 (E236/N237) (human) (UniProt P11387); experiment: pull-down; GST-capTOP1 on glutathione beads incubated with extracts of 293T cells or HeLa cells; endogenous BTBD1 and BTBD2 detected with specific peptide antibodies; only the target purified
[4] = biological target: GST fused to the cap domain of hu-TOP1 with AGM residues D236/S237 (human) (UniProt P11387); experiment: as above
[5] = biological target: T1, BTBD2 (two-hybrid construct of the unpublished BTBD1-BTBD2 assay); experiment: two-hybrid; unpublished results; BTBD1 with BTBD2

Molecule	binding [1]	binding [2]	binding [3]	binding [4]	binding [5]
C-terminal region of BTBD1 (aa 186-482) (from UniProt Q9H0C5-1 186-482) (domain or fragment)	binds	no binding			
C-terminal region of BTBD2 (aa 219-525) (from UniProt Q9BX70-1 219-525) (domain or fragment)	binds	no binding			
endogenous BTBD1 (protein, UniProt Q9H0C5-1 1-482) MASLGPAAAGEQASGAEAEPGPAGPPPPPSPSSLGPLLPLQREPLYNWQATKASLKERFAFLFNSELLSDVRFVLGKGRGAAAAGGPQRIPAHRFVLAAGSAVFDAMFNGGMATTSAEIELPDVEPAAFLALLRFLYSDEVQIGPETVMTTLYTAKKYAVPALEAHCVEFLTKHLRADNAFMLLTQARLFDEPQLASLCLDTIDKSTMDAISAEGFTDIDIDTLCAVLERDTLSIRESRLFGAVVRWAEAECQRQQLPVTFGNKQKVLGKALSLIRFPLMTIEEFAAGPAQSGILSDREVVNLFLHFTVNPKPRVEYIDRPRCCLRGKECCINRFQQVESRWGYSGTSDRIRFTVNRRISIVGFGLYGSIHGPTDYQVNIQIIEYEKKQTLGQNDTGFSCDGTANTFRVMFKEPIEILPNVCYTACATLKGPDSHYGTKGLKKVVHETPAASKTVFFFFSSPGNNNGTSIEDGQIPEIIFYT			binds	no binding	
endogenous BTBD2 (protein, UniProt Q9BX70-1 1-525) MAAGGSGGRASCPPGVGVGPGTGGSPGPSANAAATPAPGNAAAAAAAAAAAAAAPGPTPPAPPGPGTDAQAAGAERAEEAAGPGAAALQREAAYNWQASKPTVQERFAFLFNNEVLCDVHFLVGKGLSSQRIPAHRFVLAVGSAVFDAMFNGGMATTSTEIELPDVEPAAFLALLKFLYSDEVQIGPETVMTTLYTAKKYAVPALEAHCVEFLKKNLRADNAFMLLTQARLFDEPQLASLCLENIDKNTADAITAEGFTDIDLDTLVAVLERDTLGIREVRLFNAVVRWSEAECQRQQLQVTPENRRKVLGKALGLIRFPLMTIEEFAAGPAQSGILVDREVVSLFLHFTVNPKPRVEFIDRPRCCLRGKECSINRFQQVESRWGYSGTSDRIRFSVNKRIFVVGFGLYGSIHGPTDYQVNIQIIHTDSNTVLGQNDTGFSCDGSASTFRVMFKEPVEVLPNVNYTACATLKGPDSHYGTKGLRKVTHESPTTGAKTCFTFCYAAGNNNGTSVEDGQIPEVIFYT			binds	no binding	
BTBD1 (two-hybrid construct of the unpublished BTBD1-BTBD2 assay) (protein, UniProt Q9H0C5-1 1-482) MASLGPAAAGEQASGAEAEPGPAGPPPPPSPSSLGPLLPLQREPLYNWQATKASLKERFAFLFNSELLSDVRFVLGKGRGAAAAGGPQRIPAHRFVLAAGSAVFDAMFNGGMATTSAEIELPDVEPAAFLALLRFLYSDEVQIGPETVMTTLYTAKKYAVPALEAHCVEFLTKHLRADNAFMLLTQARLFDEPQLASLCLDTIDKSTMDAISAEGFTDIDIDTLCAVLERDTLSIRESRLFGAVVRWAEAECQRQQLPVTFGNKQKVLGKALSLIRFPLMTIEEFAAGPAQSGILSDREVVNLFLHFTVNPKPRVEYIDRPRCCLRGKECCINRFQQVESRWGYSGTSDRIRFTVNRRISIVGFGLYGSIHGPTDYQVNIQIIEYEKKQTLGQNDTGFSCDGTANTFRVMFKEPIEILPNVCYTACATLKGPDSHYGTKGLKKVVHETPAASKTVFFFFSSPGNNNGTSIEDGQIPEIIFYT					binds
